Data: article PMC4336329 (PLoS ONE, 2015)
Hit rate of the full screen: of about 310,000 compounds, about 2,200 (0.71%) showed an effect of 50% or more. Effects have a minus sign here. The list shows a part of the results.

The molecules below were run against human ether-à-go-go-related gene (hERG) potassium channel (human, UniProt Q12809) (assay: primary screen, population patch clamp on CHO cells stably expressing hERG).
Chain of human ether-à-go-go-related gene (hERG) potassium channel (Q12809 whole entry, looked up): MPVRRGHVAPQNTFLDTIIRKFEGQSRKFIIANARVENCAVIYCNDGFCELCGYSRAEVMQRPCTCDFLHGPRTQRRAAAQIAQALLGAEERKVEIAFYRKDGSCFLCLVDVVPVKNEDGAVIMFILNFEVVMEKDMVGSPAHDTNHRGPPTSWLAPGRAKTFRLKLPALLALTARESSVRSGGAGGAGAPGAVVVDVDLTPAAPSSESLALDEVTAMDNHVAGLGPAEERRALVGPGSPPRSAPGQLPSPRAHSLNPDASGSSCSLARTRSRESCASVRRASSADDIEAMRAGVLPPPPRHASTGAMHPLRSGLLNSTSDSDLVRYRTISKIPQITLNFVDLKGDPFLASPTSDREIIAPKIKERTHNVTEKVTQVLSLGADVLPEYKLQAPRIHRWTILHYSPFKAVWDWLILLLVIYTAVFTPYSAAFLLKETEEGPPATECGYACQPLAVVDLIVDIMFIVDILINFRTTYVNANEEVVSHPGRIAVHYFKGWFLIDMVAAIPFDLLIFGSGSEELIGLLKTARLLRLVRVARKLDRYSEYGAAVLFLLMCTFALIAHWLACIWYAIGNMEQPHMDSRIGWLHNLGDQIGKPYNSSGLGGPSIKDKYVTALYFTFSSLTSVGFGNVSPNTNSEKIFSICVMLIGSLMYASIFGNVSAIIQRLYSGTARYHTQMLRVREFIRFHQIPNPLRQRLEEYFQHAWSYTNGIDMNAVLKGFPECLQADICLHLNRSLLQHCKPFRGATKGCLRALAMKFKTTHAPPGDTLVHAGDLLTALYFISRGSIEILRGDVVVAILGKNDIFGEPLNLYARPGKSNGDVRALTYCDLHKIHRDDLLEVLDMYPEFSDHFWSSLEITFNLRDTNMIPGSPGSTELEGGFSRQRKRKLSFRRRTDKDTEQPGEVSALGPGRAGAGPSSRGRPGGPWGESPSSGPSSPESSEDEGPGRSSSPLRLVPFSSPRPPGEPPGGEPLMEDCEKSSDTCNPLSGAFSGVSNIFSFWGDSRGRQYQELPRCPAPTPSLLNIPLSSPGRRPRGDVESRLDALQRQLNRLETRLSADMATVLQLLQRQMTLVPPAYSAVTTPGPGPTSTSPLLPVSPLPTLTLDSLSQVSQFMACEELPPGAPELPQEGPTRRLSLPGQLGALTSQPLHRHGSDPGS

Q: `COc1ccc(S(=O)(=O)CC2(O)CCN(C(=O)C(C)(C)C)CC2)cc1` was tested. Which “hERG current change (%, negative = inhibition) at 1uM” value did it give?
A: The value was 12.5%.

Q: How did the “hERG current change (%, negative = inhibition) at 1uM” value turn out when `C=CCc1cc(C)ccc1OCCOCCC(C(=O)OCC)C(=O)OCC` was run?
A: Its value is 6.16%.

Q: `O=C(COc1ccc(Cl)cc1)OCC(=O)c1ccc[nH]1` was tested. Which “hERG current change (%, negative = inhibition) at 1uM” value did it give?
A: Its value is 8.73%.

Q: For `COC(=O)c1cc(NC(=O)Cc2ccc(OC)cc2)cc(C(=O)OC)c1`, which “hERG current change (%, negative = inhibition) at 1uM” value is on record?
A: The value was 14.7%.

Q: `CN(C)CCCNC1=CC(=O)CC(c2ccccc2)C1` (centres unmarked) was tested. Which “hERG current change (%, negative = inhibition) at 1uM” value did it give?
A: The value was -1.56%.

Q: Which “hERG current change (%, negative = inhibition) at 1uM” value does the source give for `COc1cccc(CC(=O)N2CCCC(CO)(Cc3ccc(F)cc3F)C2)c1` (centres unmarked) here?
A: Its value is 12.4%.

Q: How did the “hERG current change (%, negative = inhibition) at 1uM” value turn out when `CCOC(=O)C1CCN(C(=O)CN(C)S(=O)(=O)c2cc(C)ccc2OC)CC1` was run?
A: The value was -2.85%.

Q: For `CC(C)Cc1nnc(NC(=O)CSc2nc(N)cc(=O)[nH]2)s1`, which “hERG current change (%, negative = inhibition) at 1uM” value is on record?
A: The value was 5.82%.

Q: How did the “hERG current change (%, negative = inhibition) at 1uM” value turn out when `COc1cc2c(c(OC)c1OC)-c1c(cc(OC)c(OC)c1OC)C[C@](C)(O)[C@@H](C)C2` was run?
A: Its value is -58.4%.

Q: `Cc1c(C(=O)N2CCN(CCc3ccccn3)CC2)oc2ccc(F)cc12` was tested. Which “hERG current change (%, negative = inhibition) at 1uM” value did it give?
A: The value was -61.3%.

Q: For `NS(=O)(=O)c1ccc(S(=O)(=O)N2CCN(C3CCCC3)CC2)cc1`, which “hERG current change (%, negative = inhibition) at 1uM” value is on record?
A: The value was 14.3%.

Q: How did the “hERG current change (%, negative = inhibition) at 1uM” value turn out when `COc1ccc(/C=C/c2c(-c3ccc(OC)cc3)oc3cccnc23)cc1` was run?
A: The value was 14.7%.

Q: How did the “hERG current change (%, negative = inhibition) at 1uM” value turn out when `Cc1ccc(C)c(NC(=O)CN(C)C(=O)c2cccc(S(=O)(=O)N(C)C)c2)c1` was run?
A: Its value is -2.36%.

Q: How did the “hERG current change (%, negative = inhibition) at 1uM” value turn out when `CCN(CC)CCNC(=O)C(=O)Nc1cc2c3c(c1)CCN3C(=O)CC2` was run?
A: Its value is 16.8%.

Q: How did the “hERG current change (%, negative = inhibition) at 1uM” value turn out when `NC(=O)C1CCN(CCC(=O)Nc2ccc(Br)cc2)CC1` was run?
A: The value was -16.2%.

Q: Which “hERG current change (%, negative = inhibition) at 1uM” value does the source give for `CCN(CC)CCNC(=S)NC(=O)c1cn(-c2ccccc2)nc1-c1ccc(OC)cc1` here?
A: Its value is 4.93%.

Q: Which “hERG current change (%, negative = inhibition) at 1uM” value does the source give for `COc1cc(OC)cc(-c2cc(N)n(S(=O)(=O)Cc3ccccc3)n2)c1` here?
A: Its value is 8.58%.

Q: Which “hERG current change (%, negative = inhibition) at 1uM” value does the source give for `O=C(C1=C[C@@H](c2ccc(C(F)(F)F)cc2)C[C@@H](OCCCCO)O1)N1CCOCC1` here?
A: Its value is 5.4%.

Q: How did the “hERG current change (%, negative = inhibition) at 1uM” value turn out when `Cc1c(NC(=O)CN2C(=O)NC(CCc3ccccc3)C2=O)c(=O)n(-c2ccccc2)n1C` (centres unmarked) was run?
A: The value was 7.98%.

Q: How did the “hERG current change (%, negative = inhibition) at 1uM” value turn out when `CN1CCN(C(=O)c2ccc3c(c2)S(=O)(=O)c2ccccc2C3=O)CC1` was run?
A: The value was 0.519%.

Q: Which “hERG current change (%, negative = inhibition) at 1uM” value does the source give for `CCCCn1c(N)c(N(CCOC)C(=O)c2cccc(S(=O)(=O)N3CCCCCC3)c2)c(=O)[nH]c1=O` here?
A: The value was 12.4%.

Q: Which “hERG current change (%, negative = inhibition) at 1uM” value does the source give for `C/C(=N\Nc1ccc(S(N)(=O)=O)cc1[N+](=O)[O-])c1ccccc1O` here?
A: The value was 0.874%.

Q: `O=C(COC(=O)c1ccc2ncsc2c1)Nc1ccc(Cl)cc1` was tested. Which “hERG current change (%, negative = inhibition) at 1uM” value did it give?
A: Its value is 11.9%.

Q: With `COc1ccc(C(=O)CCC(=O)Nc2cc(Cl)c(O)c(Cl)c2)cc1` as the molecule, how does the “hERG current change (%, negative = inhibition) at 1uM” value read?
A: The value was 17.7%.

Q: `CCc1ccc(Oc2coc3cc(OC(=O)c4cc5ccccc5oc4=O)ccc3c2=O)cc1` was tested. Which “hERG current change (%, negative = inhibition) at 1uM” value did it give?
A: The value was -9.78%.

Q: Which “hERG current change (%, negative = inhibition) at 1uM” value does the source give for `CCOC(=O)C(=O)Nc1nnc(COc2ccccc2)s1` here?
A: The value was 1.26%.

Q: `Br.CCN(CC)CCn1c(=N)n(CC(=O)c2ccc(C)cc2)c2ccccc21` was tested. Which “hERG current change (%, negative = inhibition) at 1uM” value did it give?
A: Its value is 4.52%.

Q: `CCOCC(=O)Nc1cccc(Br)c1` was tested. Which “hERG current change (%, negative = inhibition) at 1uM” value did it give?
A: The value was 2.52%.

Q: Which “hERG current change (%, negative = inhibition) at 1uM” value does the source give for `CCNC(=S)NCc1ccc2c(c1)OCO2` here?
A: Its value is 1.45%.

Q: `COc1ccccc1N1C(=O)CCC1(C#N)c1ccccc1` (centres unmarked) was tested. Which “hERG current change (%, negative = inhibition) at 1uM” value did it give?
A: Its value is -8.84%.

Q: For `CCNC(=O)COC(=O)c1cc(C)n(-c2ccccc2)c1C`, which “hERG current change (%, negative = inhibition) at 1uM” value is on record?
A: The value was 5.89%.

Q: `COc1cccc(NC(=O)CN(C)C(=O)c2ccc(COc3ccccc3)o2)c1` was tested. Which “hERG current change (%, negative = inhibition) at 1uM” value did it give?
A: The value was 10.4%.

Q: With `CN1[C@@H]2CC[C@H]1CC(OC(=O)c1c[nH]c3ccccc13)C2.Cl` (some centres unmarked) as the molecule, how does the “hERG current change (%, negative = inhibition) at 1uM” value read?
A: Its value is -17.4%.

Q: How did the “hERG current change (%, negative = inhibition) at 1uM” value turn out when `CC(=O)N1CCOc2ccc(S(=O)(=O)N3CCN(c4cc(C)ccc4C)CC3)cc21` was run?
A: Its value is 10.1%.

Q: How did the “hERG current change (%, negative = inhibition) at 1uM” value turn out when `O=C(CN=C1NS(=O)(=O)c2ccccc21)OCC(=O)c1cc(F)ccc1F` was run?
A: Its value is 13.3%.

Q: Which “hERG current change (%, negative = inhibition) at 1uM” value does the source give for `Fc1ccccc1OCCCCCCN1CCCC1` here?
A: Its value is -26.1%.

Q: `CC(C)CCSc1nnc(N)s1` was tested. Which “hERG current change (%, negative = inhibition) at 1uM” value did it give?
A: The value was 10.2%.

Q: `Cn1c(C(=O)c2ccccc2)nc2ccccc21` was tested. Which “hERG current change (%, negative = inhibition) at 1uM” value did it give?
A: The value was 3.63%.

Q: `Cc1ccc2c(c1)COc1c3ccc(C(=O)N[C@@H](C)CO)cc3nn1-2` was tested. Which “hERG current change (%, negative = inhibition) at 1uM” value did it give?
A: The value was 15.9%.

Q: For `CN(C(=O)c1cc(COc2c(F)cccc2F)on1)C1CCOC1` (centres unmarked), which “hERG current change (%, negative = inhibition) at 1uM” value is on record?
A: The value was -2.14%.

Q: Which “hERG current change (%, negative = inhibition) at 1uM” value does the source give for `Cc1ccc(-n2nc(C)c3c(=O)[nH]c(C(F)(F)F)nc32)cc1` here?
A: The value was -1.46%.

Q: How did the “hERG current change (%, negative = inhibition) at 1uM” value turn out when `O=C(COC(=O)COc1ccccc1[N+](=O)[O-])Nc1ccccc1Br` was run?
A: Its value is 7.41%.

Q: Which “hERG current change (%, negative = inhibition) at 1uM” value does the source give for `Cc1ccc2sc(-c3ccc(NC(=O)CCN4C(=O)c5ccccc5C4=O)cc3)nc2c1` here?
A: Its value is 11.4%.

Q: With `Cc1onc(-c2cccc(Cl)c2Cl)c1C(=O)O/N=C(\N)c1ccc([N+](=O)[O-])o1` as the molecule, how does the “hERG current change (%, negative = inhibition) at 1uM” value read?
A: Its value is -0.409%.
